Laboratory results as given in PubChem BioAssay (NCATS).
Inconclusive results, whose numbers are uncertain, are shown with a selection of clear calls. Potencies of inconclusive entries are left out as doubtful fits. The source made the active and inactive calls. Calls follow the shape of the dose curve; as a rule, active = well fitted inhibition curve with a large enough effect; inconclusive = small, poorly fitted or top-dose-only effect; inactive = flat fitted curve, though single readings scatter.

biological target: Calcium and integrin-binding protein 1 (Homo sapiens) (UniProt Q99828); assay: Primary qHTS for Identification of Calcium Integrin Binding Protein 1 (CIB1) Competitor (AID 1508620); conditions: CIB1-GST / FITC-alphaIIb peptide fluorescence polarization; series mostly up to 114 µM; activity change, negative = inhibition: at the top concentration;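 as to activity change, negative = inhibition: GST tagged CIB1 binding a fluorescein labelled alphaIIb integrin peptide tracer; top concentration of the series differs between compounds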
Sequence of UniProt Q99828 (Q99828 whole entry, looked up): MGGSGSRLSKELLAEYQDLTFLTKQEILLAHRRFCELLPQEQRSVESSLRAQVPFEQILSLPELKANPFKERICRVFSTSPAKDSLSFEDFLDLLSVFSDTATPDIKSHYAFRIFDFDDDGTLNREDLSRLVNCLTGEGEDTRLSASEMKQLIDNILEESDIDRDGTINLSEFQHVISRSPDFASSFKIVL
In short: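 Fluorescence polarization competition: CIB1-GST (1 uM final) preincubated with compound 15 min at room temperature, then FITC-labeled alphaIIb peptide (100 nM final) added for another 15 min. Polarization read at Ex 480/Em 540.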
% is scaled to controls: 0 for no effect and ±100 for the full control effect; potency is read from the fitted curve at half-maximal effect; tags tell the direction and shape of the fitted curve.

| Compound | activity change, negative = inhibition | Potency |
| --- | --- | --- |
| c1cncc(-c2ccc(CNc3nc(C4CCCC4)nc4ccccc34)cc2)c1 | inactive: 6.46% |  |
| CC(C)N1CCc2c(sc(NC(=O)Cc3ccccc3)c2-c2nc3ccccc3s2)C1 |  | active: 28.2 µM |
| COc1ccccc1C(=O)OCC#CCSc1nnc(-c2cccc3ccccc23)o1 | inactive: 5.37% |  |
| Cc1cc(NS(=O)(=O)c2ccc(NC(=O)Cc3ccc4ccccc4c3)cc2)no1 | inactive: -13.9% |  |
| COc1ccc(C2c3c(ncn(CCN4CCOCC4)c3=N)Oc3ccc4ccccc4c32)cc1 (centres undefined) | inactive: 9.45% |  |
| CC(C)(C)CNc1nc(C#N)nc(Nc2ccccc2)n1 | inactive: 1.5% |  |
| O=C1Nc2cc(Cl)ccc2Nc2cscc21 |  | inconclusive [inhibitor, partial curve] |
| O=C1CCCC2=C1C1(CCCCC1)N=C(Nc1nc3ccccc3o1)N2 |  | inconclusive [inhibitor, partial curve, poor fit] |
| CCOC(=O)C1CCN(C(=O)C2(NC(=O)Nc3ccccc3Cl)CCCCC2)CC1 | inactive: 1.89% |  |
